Assay results from a compilation of properties of binary mixtures (doi:10.1021/je700076t).
The densities may have been worked out from excess volumes.

Test: xn = mol fraction of the nth substance listed
Conditions: 101 kPa

CCCC[n+]1ccn(C)c1.F[B-](F)(F)F + CCCCCC[n+]1ccn(C)c1.F[B-](F)(F)F
x1 = 1
Conditions | mass density [kg/m3]
298.15 K | 1201.7
299.15 K | 1200.8
302.15 K | 1198.7
303.15 K | 1198
304.15 K | 1197.3
305.15 K | 1196.6
307.15 K | 1195.2
308.15 K | 1194.5

CC[n+]1ccn(C)c1.F[B-](F)(F)F + CCCCCC[n+]1ccn(C)c1.F[B-](F)(F)F
x1 = 1
Conditions | mass density [kg/m3]
299.15 K | 1278.8
302.15 K | 1276.5
304.15 K | 1274.9
305.15 K | 1274.2
307.15 K | 1272.7

CCCC[n+]1ccn(C)c1.F[B-](F)(F)F + CCCC[n+]1ccn(C)c1.COS(=O)(=O)[O-]
x1 = 1
Conditions | mass density [kg/m3]
298.15 K | 1201.4
299.15 K | 1200.7
302.15 K | 1198.6
303.15 K | 1197.9
304.15 K | 1197.2
305.15 K | 1196.6
307.15 K | 1195.2
308.15 K | 1194.5

CCCCCC[n+]1ccn(C)c1.F[B-](F)(F)F + CCCC[n+]1ccn(C)c1.F[B-](F)(F)F
mass density [kg/m3]
Conditions | 298.15 K | 299.15 K | 301.15 K | 302.15 K | 303.15 K | 304.15 K | 305.15 K | 307.15 K | 308.15 K
x2 = 0 | – | 1144.5 | 1143.1 | 1142.4 | 1141.7 | 1141.1 | 1140.4 | 1139 | 1138.3
x2 = 0.054 | 1148.1 | 1147.3 | 1145.9 | – | – | 1143.8 | 1143.2 | 1141.8 | 1141.1
x2 = 0.103 | 1150.6 | 1149.8 | 1148.4 | – | 1147 | 1146.3 | 1145.7 | 1144.3 | 1143.6
x2 = 0.2076 | 1155.9 | 1155 | – | 1152.9 | 1152.2 | 1151.6 | 1150.9 | 1149.5 | 1148.8
x2 = 0.3602 | 1163.6 | 1162.8 | 1161.4 | 1160.7 | 1160 | 1159.4 | 1158.7 | 1157.3 | –
x2 = 0.4383 | 1168 | 1167.1 | – | 1165 | – | 1163.6 | 1162.9 | 1161.5 | 1160.8
x2 = 0.5047 | 1171.7 | 1170.9 | 1169.5 | – | 1168.1 | 1167.4 | 1166.7 | 1165.3 | 1164.6
x2 = 0.555 | 1174.6 | 1173.8 | 1172.4 | 1171.7 | 1171 | 1170.3 | 1169.6 | 1168.2 | 1167.5
x2 = 0.598 | 1177 | 1176.1 | 1174.7 | 1174 | 1173.3 | 1172.6 | – | 1170.5 | 1169.8
x2 = 0.809 | 1189.5 | 1188.7 | – | 1186.6 | 1185.9 | 1185.2 | 1184.5 | 1183.1 | 1182.4
x2 = 0.8917 | 1194.6 | – | 1192.3 | 1191.6 | 1190.9 | 1190.3 | 1189.6 | 1188.2 | 1187.5

CCCC[n+]1ccn(C)c1.COS(=O)(=O)[O-] + CCCC[n+]1ccn(C)c1.F[B-](F)(F)F
mass density [kg/m3]
Conditions | 298.15 K | 299.15 K | 301.15 K | 302.15 K | 303.15 K | 304.15 K | 305.15 K | 307.15 K | 308.15 K
x2 = 0 | 1207.9 | 1207.3 | 1206 | 1205.3 | – | 1204 | 1203.3 | 1202 | 1201.4
x2 = 0.1209 | 1207.4 | 1206.7 | – | 1204.7 | 1204 | – | 1202.7 | – | 1200.6
x2 = 0.2166 | 1206.9 | 1206.3 | – | – | 1203.6 | 1202.9 | 1202.2 | 1200.8 | 1200.1
x2 = 0.3057 | 1206.4 | – | 1204.3 | 1203.7 | 1203 | 1202.3 | 1201.6 | 1200.3 | 1199.6
x2 = 0.406 | 1205.8 | 1205.1 | 1203.8 | 1203.1 | 1202.4 | 1201.7 | 1201 | 1199.7 | 1199
x2 = 0.4358 | 1205.6 | 1205 | 1203.6 | 1202.9 | 1202.2 | 1201.5 | 1200.9 | 1199.5 | 1198.8
x2 = 0.5118 | 1205.2 | 1204.5 | 1203.1 | 1202.4 | 1201.7 | 1201.1 | 1200.4 | 1199 | –
x2 = 0.5412 | 1205 | 1204.3 | 1202.9 | 1202.2 | 1201.5 | 1200.9 | – | 1198.8 | 1198.1
x2 = 0.6026 | 1204.5 | – | 1202.5 | 1201.8 | 1201.1 | 1200.4 | 1199.7 | 1198.3 | 1197.6
x2 = 0.648 | 1204.4 | 1203.6 | 1202.2 | – | – | 1200.1 | – | 1198.1 | 1197.3
x2 = 0.6934 | – | 1203.1 | 1201.7 | 1201.1 | – | 1199.7 | – | 1197.6 | 1196.9
x2 = 0.7813 | 1203.2 | 1202.5 | 1201.1 | 1200.4 | – | 1199.1 | 1198.4 | 1197 | 1196.3
x2 = 0.9005 | 1202.2 | – | – | 1199.5 | 1198.8 | 1198.1 | 1197.4 | 1196 | 1195.3
x2 = 0.9363 | 1202 | – | 1199.8 | – | 1198.4 | 1197.7 | – | 1195.7 | –
x2 = 0.9683 | – | 1201.1 | 1199.7 | – | 1198.3 | 1197.6 | 1196.9 | 1195.7 | 1194.8

CCCC[n+]1ccn(C)c1.F[P-](F)(F)(F)(F)F + CCCC[n+]1ccn(C)c1.F[B-](F)(F)F
mass density [kg/m3]
Conditions | 298.15 K | 299.15 K | 301.15 K | 302.15 K | 303.15 K | 304.15 K | 305.15 K | 307.15 K | 308.15 K
x1 = 0.0568 | – | – | 1209.5 | 1208.9 | – | – | 1206.8 | 1205.3 | 1204.6
x1 = 0.1034 | 1220.2 | 1219.5 | – | 1217.4 | 1216.7 | 1215.9 | 1215.2 | 1213.8 | 1213.1
x1 = 0.2095 | 1239.1 | 1238.3 | 1236.9 | 1236.2 | 1235.5 | – | 1234 | 1232.6 | 1231.8
x1 = 0.3012 | 1254.8 | 1254 | 1252.6 | 1251.9 | 1251.2 | 1250.4 | – | – | 1247.5
x1 = 0.3825 | 1268.7 | 1267.9 | 1266.5 | – | 1265 | 1264.2 | 1263.5 | 1262 | 1261.2
x1 = 0.4647 | 1282.6 | – | 1280.3 | 1279.6 | – | 1278.1 | 1277.3 | 1275.8 | –
x1 = 0.4999 | 1288.3 | 1287.5 | 1286.1 | 1285.3 | 1284.6 | 1283.8 | – | 1281.5 | 1280.7
x1 = 0.5974 | 1304.5 | 1303.5 | 1302.1 | 1301.4 | 1300.6 | 1299.8 | 1299 | 1297.5 | 1296.7
x1 = 0.6928 | 1319.8 | 1318.9 | 1317.4 | 1316.6 | – | 1315 | 1314.2 | 1312.6 | –
x1 = 0.833 | 1342.3 | 1341.4 | 1339.9 | 1339.1 | – | 1337.5 | 1336.6 | – | 1334.2
x1 = 0.8877 | 1350.7 | – | 1348.2 | 1347.4 | 1346.6 | – | – | 1343.3 | 1342.5
x1 = 0.945 | 1359.4 | 1358.5 | 1357 | 1356.2 | 1355.4 | 1354.5 | 1353.7 | – | –
x1 = 1 | 1367.9 | 1366.9 | – | 1364.7 | 1363.9 | – | 1362.2 | 1360.5 | 1359.7

CCCC[n+]1ccn(C)c1.F[B-](F)(F)F + CCCC[n+]1ccn(C)c1.F[P-](F)(F)(F)(F)F
x2 = 0
Conditions | mass density [kg/m3]
299.15 K | 1200.6
303.15 K | 1198.1
304.15 K | 1197.3
305.15 K | 1196.6
307.15 K | 1195.2

CCCCCC[n+]1ccn(C)c1.F[B-](F)(F)F + CC[n+]1ccn(C)c1.F[B-](F)(F)F
mass density [kg/m3]
Conditions | 298.15 K | 299.15 K | 301.15 K | 302.15 K | 303.15 K | 304.15 K | 305.15 K | 307.15 K | 308.15 K
x2 = 0 | 1145.8 | 1145.1 | 1143.7 | 1143 | 1142.3 | 1141.5 | 1140.8 | 1139.5 | 1138.8
x2 = 0.0545 | 1150.8 | 1150.1 | 1148.7 | 1148.1 | 1147.3 | 1146.6 | 1145.9 | 1144.5 | 1143.8
x2 = 0.1196 | 1157.2 | 1156.6 | – | 1154.5 | 1153.8 | 1153.1 | 1152.4 | 1151 | 1150.3
x2 = 0.1803 | 1163.6 | 1162.9 | 1161.4 | 1160.7 | 1160 | 1159.3 | – | 1157.2 | 1156.5
x2 = 0.3145 | 1178.4 | 1177.6 | 1176.3 | 1175.6 | 1174.9 | 1174.2 | 1173.5 | – | –
x2 = 0.4061 | 1189.5 | 1188.8 | – | 1186.7 | 1186 | 1185.3 | 1184.6 | – | 1182.5
x2 = 0.446 | – | 1193.7 | 1192.3 | 1191.6 | 1190.9 | 1190.2 | 1189.5 | 1188.1 | 1187.4
x2 = 0.4938 | – | – | 1198.4 | – | – | 1196.3 | 1195.6 | – | 1193.4
x2 = 0.5526 | – | 1207.5 | 1206.1 | – | 1204.7 | 1204 | 1203.3 | 1201.8 | 1201.1
x2 = 0.6006 | – | 1214.4 | 1212.9 | 1212.2 | – | 1210.7 | 1210 | 1208.5 | 1207.8
x2 = 0.7059 | 1230.3 | 1229.6 | 1228.1 | – | 1226.6 | 1225.9 | 1225.2 | 1223.7 | 1223
x2 = 0.793 | 1243.7 | – | – | 1240.7 | 1240 | 1239.2 | 1238.5 | 1237 | –
x2 = 0.8516 | 1253.3 | 1252.5 | 1251 | 1251.1 | 1249.5 | 1248.8 | 1248 | 1246.5 | 1245.8
x2 = 0.9022 | – | 1260.8 | 1259.3 | 1258.6 | – | – | 1256.4 | 1254.9 | –
